For 15 cell lines, AUC and IC50 results are on record in the supplement of paper PMC4967469.

What all share (experiment): Viability of human cancer cell lines after 72 h of drug (GDSC screen)
Compound in one experiment: NC(=O)C1CCCc2c1[nH]c1ccc(Cl)cc21 [EX-527]
The following applies: top dose 20 µM. As for the experimental part:
(§1)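 Human cancer cell lines in 384-well plates, medium with 10% serum, drug for 72 h over a 256-fold dose range (nine 2-fold or five 4-fold steps up to the top dose). Adherent lines were fixed and stained with the nucleic acid dye Syto60, suspension lines read with resazurin; signal relative to control wells, capped at 0 and 100%. One two-parameter sigmoid per drug and line, fitted in a mixed model over all curves with the slope shared within a line.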

Compound in a further experiment: Nc1ccc(C(=O)Nc2cccc(-c3nc(N4CCOCC4)c4oc5ncccc5c4n3)c2)cn1 [YM201636]
The following applies: top dose 5.12 µM; top dose inferred. The method, then:
as §1

Compound in a further experiment: Cn1cnc2c(F)c(Nc3ccc(Br)cc3Cl)c(C(=O)NOCCO)cc21 [AZD6244]
The following applies: top dose 4 µM; screen: GDSC drug entry 1498; top dose inferred. The method, then:
as §1

Compound in another experiment: N#CC(c1ccnc(NCCc2cccnc2)n1)c1nc2ccccc2s1 [AS601245]
Particulars: top dose 8 µM; top dose inferred. The method, then:
as §1

By IC50 is meant the dose at which the fit gives 50% viability; where the fit passes the top or lowest dose, that dose stands as a limit. For AUC the same curve is integrated over the 256-fold range of doses and scaled to a fraction; it is 1 without any effect and falls as sensitivity rises. For part of these data: An inferred top dose comes from the curve model; the source does not state it. For part of these data: Drugs with an entry number were screened twice under separate entries, and the two screens often disagree.

What is called IC50 is the concentration that gives 50% inhibition. As to 639-V (bladder, adherent), the AUC with EX-527 is 0.984; in the experiment with YM201636, 0.975; with AZD6244, 0.982; in the experiment with AS601245, 0.797. Further, the IC50 in the experiment with EX-527 was above 20 µM; with YM201636, above 5.12 µM; with AZD6244 it was above 4 µM; with AS601245 it was 3.14 µM.

On to 647-V (bladder, adherent), for which the AUC is 0.979 in the experiment with EX-527, 0.964 with YM201636, 0.888 in the experiment with AZD6244 and 0.879 with AS601245. For the same cell line, the IC50 was above 20 µM in the experiment with EX-527, above 5.12 µM in the experiment with YM201636, above 4 µM in the experiment with AZD6244 and above 8 µM with AS601245.

As for 769-P (kidney, adherent), the AUC was determined as 0.981 with EX-527, 0.855 with YM201636, 0.868 with AZD6244 and 0.809 in the experiment with AS601245. The IC50 is above 20 µM with EX-527, 4.69 µM in the experiment with YM201636, above 4 µM with AZD6244 and 4.64 µM with AS601245.

For 786-0 (kidney, adherent), the AUC in the experiment with EX-527 stood at 0.98; with YM201636, 0.822; in the experiment with AZD6244 it was 0.885; with AS601245, 0.754. In addition, the IC50 with EX-527 is above 20 µM; with YM201636, 2.69 µM; in the experiment with AZD6244, 3.76 µM; in the experiment with AS601245, 2.5 µM.

For 5637 (bladder, adherent), the AUC with EX-527 was determined as 0.989; with YM201636, 0.91; in the experiment with AZD6244 it was 0.975; with AS601245, 0.868. Further, the IC50 with EX-527 was above 20 µM; in the experiment with YM201636, above 5.12 µM; with AZD6244, above 4 µM; with AS601245, 6.16 µM.

8305C (thyroid, adherent): the AUC turned out to be 0.982 in the experiment with EX-527, 0.93 with YM201636, 0.704 with AZD6244 and 0.805 in the experiment with AS601245. For the same cell line, the IC50 in the experiment with EX-527 was above 20 µM; with YM201636, above 5.12 µM; with AZD6244, 1.13 µM; with AS601245, 5.64 µM.

On to 8505C (thyroid, adherent), for which the AUC with EX-527 was determined as 0.956; with YM201636, 0.886; with AZD6244, 0.767; in the experiment with AS601245 it was 0.725. Moreover, the IC50 with EX-527 is above 20 µM; in the experiment with YM201636, above 5.12 µM; with AZD6244 it was 1.57 µM; in the experiment with AS601245 it was 2.28 µM.

For 23132-87 (stomach, adherent), the AUC stood at 0.986 with EX-527, 0.808 in the experiment with YM201636, 0.891 in the experiment with AZD6244 and 0.854 with AS601245. Also, the IC50 is above 20 µM with EX-527, 2.77 µM in the experiment with YM201636, above 4 µM in the experiment with AZD6244 and 6.65 µM with AS601245.

Regarding A172 (glioma, adherent), the AUC with EX-527 is 0.988; with YM201636 it was 0.922; with AZD6244, 0.944; with AS601245, 0.74. Also, the IC50 was above 20 µM with EX-527, above 5.12 µM in the experiment with YM201636, above 4 µM with AZD6244 and 2.35 µM with AS601245.

In the case of A204 (rhabdomyosarcoma, adherent), the AUC was 0.974 in the experiment with EX-527, 0.839 in the experiment with YM201636, 0.949 in the experiment with AZD6244 and 0.785 with AS601245. The IC50 was above 20 µM with EX-527, 5.11 µM in the experiment with YM201636, above 4 µM in the experiment with AZD6244 and 4.53 µM with AS601245.

As to “A427 (non-small cell lung carcinoma, adherent)”, the AUC amounted to 0.971 in the experiment with EX-527, 0.931 in the experiment with YM201636, 0.895 in the experiment with AZD6244 and 0.859 with AS601245. Moreover, the IC50 with EX-527 was above 20 µM; with YM201636, above 5.12 µM; in the experiment with AZD6244, above 4 µM; with AS601245, 6.76 µM.

Take A431 (skin, adherent): the AUC in the experiment with EX-527 is 0.977; with YM201636, 0.908; with AZD6244, 0.971; in the experiment with AS601245 it was 0.812. The IC50 was above 20 µM with EX-527, above 5.12 µM with YM201636, above 4 µM with AZD6244 and 4.07 µM with AS601245.

Regarding A498 (kidney, adherent), the AUC is 0.976 with EX-527, 0.973 in the experiment with YM201636, 0.828 with AZD6244 and 0.969 with AS601245. Also, the IC50 in the experiment with EX-527 was above 20 µM; with YM201636 it was above 5.12 µM; with AZD6244, above 4 µM; with AS601245, above 8 µM.

For A673 (rhabdomyosarcoma, adherent), the AUC with EX-527 stood at 0.988; in the experiment with YM201636 it was 0.957; with AZD6244 it was 0.912; with AS601245 it was 0.891. In addition, the IC50 in the experiment with EX-527 is above 20 µM; with YM201636 it was above 5.12 µM; in the experiment with AZD6244, above 4 µM; in the experiment with AS601245, 7.65 µM.

Take A2780 (ovary, semi-adherent): the AUC turned out to be 0.961 with EX-527, 0.819 with YM201636, 0.983 in the experiment with AZD6244 and 0.86 with AS601245. The half-inhibitory concentration (IC50) with EX-527 is above 20 µM; in the experiment with YM201636, 3.05 µM; with AZD6244, above 4 µM; with AS601245, 7.12 µM.
